{"source": "paper PMC6919601", "about": "“Identification of Plasmodium dipeptidyl aminopeptidase allosteric inhibitors by high throughput screening” (PLoS ONE, 2019)", "note": "The whole screen tested about 110,000 compounds, of which about 230 (0.21%) showed an effect of 50% or more. Some of the results follow.", "data": [{"target": "DPAP1 (Plasmodium falciparum, UniProt Q8IIJ9)", "sequence (Q8IIJ9 whole entry, looked up)": "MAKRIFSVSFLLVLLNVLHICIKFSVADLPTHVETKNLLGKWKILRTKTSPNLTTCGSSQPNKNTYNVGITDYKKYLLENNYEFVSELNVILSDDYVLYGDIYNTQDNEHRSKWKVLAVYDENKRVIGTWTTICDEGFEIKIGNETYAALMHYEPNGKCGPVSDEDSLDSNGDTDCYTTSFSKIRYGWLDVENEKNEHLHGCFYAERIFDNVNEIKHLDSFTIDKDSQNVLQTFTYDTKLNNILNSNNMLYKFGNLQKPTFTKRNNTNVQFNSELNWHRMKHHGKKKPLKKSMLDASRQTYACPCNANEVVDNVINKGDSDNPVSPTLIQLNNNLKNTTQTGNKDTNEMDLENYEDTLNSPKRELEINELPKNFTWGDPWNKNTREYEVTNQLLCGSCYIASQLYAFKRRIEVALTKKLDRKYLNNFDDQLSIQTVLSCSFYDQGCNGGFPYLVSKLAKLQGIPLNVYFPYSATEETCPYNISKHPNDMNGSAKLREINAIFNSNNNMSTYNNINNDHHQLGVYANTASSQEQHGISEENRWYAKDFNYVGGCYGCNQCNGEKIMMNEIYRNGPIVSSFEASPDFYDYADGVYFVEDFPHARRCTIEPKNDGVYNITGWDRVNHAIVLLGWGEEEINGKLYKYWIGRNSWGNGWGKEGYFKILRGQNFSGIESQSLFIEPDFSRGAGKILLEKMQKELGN", "assay": "primary screen, percent inhibition; read by cleavage of a fluorogenic dipeptide substrate; higher = more effect of the substance", "design": "species or system P. falciparum D10 trophozoite lysates; single well", "units": {"% Inhibition @ 10 uM": "%"}, "values": [{"compound": "COc1ccc(C(CC(=O)Nc2nccs2)N2Cc3ccccc3C2=O)cc1OC", "note": "(stereo not shown);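 also: 30 min substrate incubation versus DMSO and 10 µM JCP410 controls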", "% Inhibition @ 10 uM": -8.68}, {"compound": "COc1cccc(CN2CCN(Cc3ccc(OC)c(OC)c3OC)CC2)c1", "% Inhibition @ 10 uM": -6.74}, {"compound": "CCC(/N=c1\\cc(-c2ccc(OC)cc2)oc2ccc(C)cc12)C(=O)O", "note": "(stereo not shown)", "% Inhibition @ 10 uM": -0.169}, {"compound": "CCc1c(O)nc(SCC(=O)N(CC)CC)n(-c2ccc(F)cc2)c1=O", "% Inhibition @ 10 uM": -2.78}, {"compound": "Clc1ccc(OCCn2ccnc2)c2ccccc12", "% Inhibition @ 10 uM": 1.57}, {"compound": "COc1ccccc1C1=NC(c2ccccc2OC)c2c(ccc3ccccc23)N1", "note": "(stereo not shown)", "% Inhibition @ 10 uM": 2.55}, {"compound": "CC12OC(=N)C(C#N)(C(c3ccco3)O1)C(C#N)(C#N)C2c1ccccc1", "note": "(stereo not shown)", "% Inhibition @ 10 uM": -1.24}, {"compound": "Cc1c(-c2cccc(Cl)c2)nc2ccccc2c1C(=O)NCCCN1CCOCC1", "% Inhibition @ 10 uM": -1.57}, {"compound": "CC(C)C[C@H](NC(=O)OCC1CC1)C(=O)NCC#N", "% Inhibition @ 10 uM": -6.46}, {"compound": "CC(C)c1ccc(CNC(=O)CSCC(=O)Nc2ccc3ccccc3c2)cc1", "% Inhibition @ 10 uM": 5.31}, {"compound": "CCC(=O)Nc1nc2ccccc2n1CCN1CCOCC1", "% Inhibition @ 10 uM": 2.6}, {"compound": "COc1ccc(CNC23CC4CC(CC(C4)C2)C3)cc1C", "% Inhibition @ 10 uM": 1.8}, {"compound": "OCCNc1nc(Nc2cccc(O)c2)nc2ccccc12", "% Inhibition @ 10 uM": -4.49}, {"compound": "COc1ccccc1C1Nc2ccccc2N=C2CC(C)(C)CC(O)=C21", "note": "(stereo not shown)", "% Inhibition @ 10 uM": -4.41}, {"compound": "CCOC(=O)c1cnc2c(Cl)cc(Cl)cc2c1NCCOCCO", "% Inhibition @ 10 uM": 4.18}, {"compound": "COc1ccc(N2CCN(C(=O)CCC(=O)O)CC2)cc1", "% Inhibition @ 10 uM": 1.67}, {"compound": "Cc1sc2nc(NCc3ccccc3)nc(O)c2c1C", "% Inhibition @ 10 uM": -1.66}, {"compound": "CCC(C)OC(=O)C1=C(C)NC(=O)CC1c1cc2c(cc1Br)OCO2", "note": "(stereo not shown)", "% Inhibition @ 10 uM": -4.16}, {"compound": "CC1=CC(C)C(CN(CCO)CC2C(C)C=C(C)CC2C)C(C)C1", "note": "(stereo not shown)", "% Inhibition @ 10 uM": -1.42}, {"compound": "Cc1cc(C)nc(NC(=O)COc2ccc(Cl)cc2C)c1", "% Inhibition @ 10 uM": -0.643}, {"compound": "Cc1ccc(C)c(S(=O)(=O)NCc2ccncc2)c1", "% Inhibition @ 10 uM": -7.5}, {"compound": "CC(C)CCOC(=O)c1c[nH]nc1[N+](=O)[O-]", "% Inhibition @ 10 uM": -5.65}, {"compound": "CC(C)c1[nH]nc2c1C1(CCN(Cc3ccccc3)CC1)C(C#N)=C(N)O2", "% Inhibition @ 10 uM": 2.32}, {"compound": "c1ccc(CCN2CCC(N3CCN(Cc4ccccc4)CC3)CC2)cc1", "% Inhibition @ 10 uM": -1.81}, {"compound": "CCCOc1ccc(-c2csc3ncn(CC)c(=O)c23)cc1", "% Inhibition @ 10 uM": 3.81}, {"compound": "CCN(CC)c1ccc(C=C2C(=O)NC(=S)NC2=O)c(OC)c1", "% Inhibition @ 10 uM": 1.29}, {"compound": "FC(F)(F)c1cccc(-n2cnnn2)c1", "% Inhibition @ 10 uM": -1.71}, {"compound": "OCCC/N=c1\\cc(O)oc2ccccc12", "% Inhibition @ 10 uM": -9.37}, {"compound": "O=C1NC(=S)N/C1=C\\c1cc([N+](=O)[O-])c(Cl)cc1Cl", "% Inhibition @ 10 uM": -6.7}, {"compound": "COC(=O)c1ccc(-c2ccco2)n1CC(=O)N1CCC(C(N)=O)CC1", "% Inhibition @ 10 uM": -1.67}, {"compound": "Cc1nc2nc(SCC(=O)NCc3ccc4c(c3)OCO4)nn2c(C)c1Cc1ccccc1Cl", "% Inhibition @ 10 uM": 4.14}, {"compound": "CC1(O)C(=O)c2ccccc2N(c2ccccc2)C1=O", "note": "(stereo not shown)", "% Inhibition @ 10 uM": 0.408}, {"compound": "CCCCNC(=O)C1CCN(S(=O)(=O)c2ccc(Br)cc2)CC1", "% Inhibition @ 10 uM": -0.641}, {"compound": "CCCN(CCC)S(=O)(=O)c1cc2nc(O)c(O)nc2cc1C", "% Inhibition @ 10 uM": -0.0621}, {"compound": "COc1cc2c(cc1OC)-c1nnc(-c3cc(OC)c(OC)c(OC)c3)n1C(C)(C)C2", "% Inhibition @ 10 uM": 0.317}, {"compound": "O=C(NC(=O)c1c(F)cccc1F)Nc1c(F)cccc1F", "% Inhibition @ 10 uM": 0.727}, {"compound": "Cc1nc2sc(C(=O)N3CCC(C)CC3)c(N)c2c(C)c1Cl", "% Inhibition @ 10 uM": 6.38}, {"compound": "Oc1nc(CSc2nc[nH]n2)nc2ccccc12", "% Inhibition @ 10 uM": 2.99}, {"compound": "O=C(Nc1ccc2oc(-c3ccccc3F)nc2c1)c1ccccc1F", "% Inhibition @ 10 uM": -0.622}, {"compound": "COc1ccc(-c2nnc(SCC(=O)c3ccc(C)o3)n2-c2ccccc2)cc1", "% Inhibition @ 10 uM": 2.7}, {"compound": "Cc1ccccc1C(=O)N1CCC(C(=O)O)CC1", "% Inhibition @ 10 uM": 0.755}, {"compound": "Cc1ccc(CCNS(=O)(=O)c2ccc3[nH]c4c(c3c2)CCCC4)cc1", "% Inhibition @ 10 uM": -0.878}, {"compound": "COc1cc(OC)cc(C(=O)NC(C)C23CC4CC(CC(C4)C2)C3)c1", "note": "(stereo not shown)", "% Inhibition @ 10 uM": -0.424}, {"compound": "O=C(NCC1COc2ccccc2O1)C1(c2ccccc2)CCCC1", "note": "(stereo not shown)", "% Inhibition @ 10 uM": -1.16}, {"compound": "CS(=O)(=O)N(CC(=O)N1CCN(Cc2ccccc2)CC1)Cc1ccccc1", "% Inhibition @ 10 uM": -5.6}, {"compound": "CCc1ccc(C2C(C(=O)c3ccc4c(c3)CC(C)O4)=C(O)C(=O)N2CCOC)cc1", "note": "(stereo not shown)", "% Inhibition @ 10 uM": -2.84}, {"compound": "COc1ccc2[nH]c3c(=O)n(CCCCC(=O)N(C)Cc4ccccc4)c(=S)[nH]c3c2c1", "% Inhibition @ 10 uM": 4.28}, {"compound": "CC1(C)CC(=O)C(/C=N/c2cccc(/N=C/C3=C(O)CC(C)(C)CC3=O)n2)=C(O)C1", "% Inhibition @ 10 uM": 2.03}, {"compound": "Cc1c(CNC(C)c2ccccc2)c(C(=O)O)c(C)n1Cc1ccccc1F", "note": "(stereo not shown)", "% Inhibition @ 10 uM": -7.36}, {"compound": "Cn1c2c(c(=O)n(C)c1=O)C(c1cccc(Cl)c1Cl)CC(=O)N2", "note": "(stereo not shown)", "% Inhibition @ 10 uM": -0.396}, {"compound": "COc1nc(C)nc(NC(=O)NS(=O)(=O)c2ccccc2C)n1", "% Inhibition @ 10 uM": 0.716}, {"compound": "CCOc1ccccc1-c1cc(C(=O)NCc2ccncc2)c2ccccc2n1", "% Inhibition @ 10 uM": 0.467}, {"compound": "Cc1ccc(C(=O)NCc2nc(-c3ccc(Cl)cc3)no2)c(C)c1", "% Inhibition @ 10 uM": 2.14}, {"compound": "CCN1/C(=C\\C(=O)c2ccc(C)cc2)Sc2ccccc21", "% Inhibition @ 10 uM": 6.08}, {"compound": "Cc1ccc(-c2nc(CSCC(=O)NC3CCCCC3C)c(C)o2)cc1", "note": "(stereo not shown)", "% Inhibition @ 10 uM": -1.05}, {"compound": "Cc1ccc(Nc2nc(N)nc(CSc3nccn3C)n2)cc1", "% Inhibition @ 10 uM": -0.105}, {"compound": "CCCCN1C(C)=CC(=C2C(=O)c3ccccc3C2=O)C=C1C", "% Inhibition @ 10 uM": 2.03}, {"compound": "CCC(C)NC(=O)CNC(=S)N(Cc1ccccc1)Cc1cccnc1", "note": "(stereo not shown)", "% Inhibition @ 10 uM": 1.27}, {"compound": "Cc1ccc(OCC(=O)Nc2nc(-c3ccc(S(=O)(=O)N4CCOCC4)cc3)cs2)cc1C", "% Inhibition @ 10 uM": 5.92}, {"compound": "O=C(CSC1=NC(=O)C(c2ccccc2)C(=O)N1)NC1CCCCC1", "note": "(stereo not shown)", "% Inhibition @ 10 uM": -2.26}, {"compound": "COc1ccccc1C(=O)N1CCN(Cc2ccccc2)CC1", "% Inhibition @ 10 uM": -3.49}, {"compound": "Cc1ccc2cc3cc(C(=O)NCCN(C)Cc4ccccc4)sc3nc2c1", "% Inhibition @ 10 uM": -2.12}, {"compound": "CN1C(=O)c2ccc(N3C(=O)c4ccc(Br)cc4C3=O)cc2C1=O", "% Inhibition @ 10 uM": 23.3}, {"compound": "CN1C/C(=C\\c2ccc(F)cc2)C(=O)/C(=C/c2ccc(F)cc2)C1", "% Inhibition @ 10 uM": 2.59}]}]}
